{
  "sequences": {"note": "Amino acid sequences for entries named in this document (tags omitted).", "UniProt P10070": "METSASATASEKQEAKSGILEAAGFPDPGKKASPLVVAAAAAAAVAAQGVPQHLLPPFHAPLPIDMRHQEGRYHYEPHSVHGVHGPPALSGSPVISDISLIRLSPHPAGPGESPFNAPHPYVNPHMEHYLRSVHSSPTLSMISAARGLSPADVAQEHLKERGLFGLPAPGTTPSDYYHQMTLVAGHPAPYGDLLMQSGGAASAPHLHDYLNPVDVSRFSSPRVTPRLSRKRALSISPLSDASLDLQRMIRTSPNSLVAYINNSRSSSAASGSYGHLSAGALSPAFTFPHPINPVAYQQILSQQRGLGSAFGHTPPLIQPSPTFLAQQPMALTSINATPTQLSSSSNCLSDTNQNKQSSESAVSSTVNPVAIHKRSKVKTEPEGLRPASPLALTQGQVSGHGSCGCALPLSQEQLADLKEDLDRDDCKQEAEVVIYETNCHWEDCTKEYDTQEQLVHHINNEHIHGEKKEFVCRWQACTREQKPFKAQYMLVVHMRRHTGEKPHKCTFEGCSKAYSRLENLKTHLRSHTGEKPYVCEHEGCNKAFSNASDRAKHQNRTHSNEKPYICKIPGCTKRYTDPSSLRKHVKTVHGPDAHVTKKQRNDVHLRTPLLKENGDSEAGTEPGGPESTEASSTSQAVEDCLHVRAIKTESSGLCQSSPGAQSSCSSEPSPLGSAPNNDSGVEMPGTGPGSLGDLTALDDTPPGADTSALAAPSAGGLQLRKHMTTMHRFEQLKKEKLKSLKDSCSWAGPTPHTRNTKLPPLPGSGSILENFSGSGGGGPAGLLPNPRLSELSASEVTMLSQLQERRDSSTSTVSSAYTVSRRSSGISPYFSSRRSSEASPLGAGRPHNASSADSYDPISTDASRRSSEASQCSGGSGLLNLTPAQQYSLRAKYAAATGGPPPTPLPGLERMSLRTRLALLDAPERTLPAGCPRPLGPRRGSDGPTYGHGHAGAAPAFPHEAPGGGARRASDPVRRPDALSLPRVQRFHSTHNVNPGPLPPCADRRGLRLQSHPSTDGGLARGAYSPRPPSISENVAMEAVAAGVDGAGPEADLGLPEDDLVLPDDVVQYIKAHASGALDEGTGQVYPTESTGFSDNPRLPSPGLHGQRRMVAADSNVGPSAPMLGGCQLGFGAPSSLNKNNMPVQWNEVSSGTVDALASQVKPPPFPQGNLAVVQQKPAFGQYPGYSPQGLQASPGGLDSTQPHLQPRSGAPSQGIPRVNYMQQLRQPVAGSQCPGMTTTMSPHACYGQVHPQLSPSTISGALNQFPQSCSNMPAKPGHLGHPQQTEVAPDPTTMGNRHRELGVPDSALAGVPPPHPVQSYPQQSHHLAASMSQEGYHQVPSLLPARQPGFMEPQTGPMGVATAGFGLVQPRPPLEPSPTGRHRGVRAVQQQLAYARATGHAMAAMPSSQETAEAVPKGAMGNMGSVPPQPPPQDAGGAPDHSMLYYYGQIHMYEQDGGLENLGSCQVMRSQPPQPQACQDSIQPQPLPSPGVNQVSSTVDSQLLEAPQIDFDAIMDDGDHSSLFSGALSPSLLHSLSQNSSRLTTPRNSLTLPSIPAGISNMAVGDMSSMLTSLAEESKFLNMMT", "UniProt P08151": "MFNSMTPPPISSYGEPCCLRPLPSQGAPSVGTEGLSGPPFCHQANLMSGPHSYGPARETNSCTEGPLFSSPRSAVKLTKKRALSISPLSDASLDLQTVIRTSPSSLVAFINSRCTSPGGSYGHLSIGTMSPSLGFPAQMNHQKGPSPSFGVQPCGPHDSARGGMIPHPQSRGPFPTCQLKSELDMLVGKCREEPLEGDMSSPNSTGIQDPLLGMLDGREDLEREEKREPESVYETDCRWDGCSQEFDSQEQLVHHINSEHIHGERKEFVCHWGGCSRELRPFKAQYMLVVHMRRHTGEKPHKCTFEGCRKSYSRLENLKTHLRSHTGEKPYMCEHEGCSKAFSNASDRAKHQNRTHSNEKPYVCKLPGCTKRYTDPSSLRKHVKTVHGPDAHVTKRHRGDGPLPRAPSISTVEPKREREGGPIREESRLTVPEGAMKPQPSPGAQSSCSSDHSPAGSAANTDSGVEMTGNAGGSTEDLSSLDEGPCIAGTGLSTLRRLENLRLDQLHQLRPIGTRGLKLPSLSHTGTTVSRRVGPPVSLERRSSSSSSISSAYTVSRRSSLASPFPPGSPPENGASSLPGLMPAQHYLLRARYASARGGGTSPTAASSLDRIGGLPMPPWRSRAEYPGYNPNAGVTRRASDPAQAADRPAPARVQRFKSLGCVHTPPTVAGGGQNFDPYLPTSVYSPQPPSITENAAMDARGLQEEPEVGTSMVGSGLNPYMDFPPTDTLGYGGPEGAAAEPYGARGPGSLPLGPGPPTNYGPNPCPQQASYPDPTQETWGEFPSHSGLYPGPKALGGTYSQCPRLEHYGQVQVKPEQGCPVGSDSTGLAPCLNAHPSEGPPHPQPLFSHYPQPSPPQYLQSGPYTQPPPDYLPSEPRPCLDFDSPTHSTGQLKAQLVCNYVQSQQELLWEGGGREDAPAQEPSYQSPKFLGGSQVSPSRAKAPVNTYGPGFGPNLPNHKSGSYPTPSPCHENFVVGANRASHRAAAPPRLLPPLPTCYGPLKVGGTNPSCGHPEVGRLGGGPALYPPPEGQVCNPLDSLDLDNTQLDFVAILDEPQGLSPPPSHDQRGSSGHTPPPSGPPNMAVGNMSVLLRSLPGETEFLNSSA"},
  "source": "paper PMC4868714",
  "molecules": {"B1": {"name": "endogenous TSHZ2 (protein, UniProt Q9NRE2 1-1034)", "chain": "MPRRKQQAPKRAAGYAQEEQLKEEEEIKEEEEEEDSGSVAQLQGGNDTGTDEELETGPEQKGCFSYQNSPGSHLSNQDAENESLLSDASDQVSDIKSVCGRDASDKKAHTHVRLPNEAHNCMDKMTAVYANILSDSYWSGLGLGFKLSNSERRNCDTRNGSNKSDFDWHQDALSKSLQQNLPSRSVSKPSLFSSVQLYRQSSKMCGTVFTGASRFRCRQCSAAYDTLVELTVHMNETGHYQDDNRKKDKLRPTSYSKPRKRAFQDMDKEDAQKVLKCMFCGDSFDSLQDLSVHMIKTKHYQKVPLKEPVPTISSKMVTPAKKRVFDVNRPCSPDSTTGSFADSFSSQKNANLQLSSNNRYGYQNGASYTWQFEACKSQILKCMECGSSHDTLQQLTTHMMVTGHFLKVTSSASKKGKQLVLDPLAVEKMQSLSEAPNSDSLAPKPSSNSASDCTASTTELKKESKKERPEETSKDEKVVKSEDYEDPLQKPLDPTIKYQYLREEDLEDGSKGGGDILKSLENTVTTAINKAQNGAPSWSAYPSIHAAYQLSEGTKPPLPMGSQVLQIRPNLTNKLRPIAPKWKVMPLVSMPTHLAPYTQVKKESEDKDEAVKECGKESPHEEASSFSHSEGDSFRKSETPPEAKKTELGPLKEEEKLMKEGSEKEKPQPLEPTSALSNGCALANHAPALPCINPLSALQSVLNNHLGKATEPLRSPSCSSPSSSTISMFHKSNLNVMDKPVLSPASTRSASVSRRYLFENSDQPIDLTKSKSKKAESSQAQSCMSPPQKHALSDIADMVKVLPKATTPKPASSSRVPPMKLEMDVRRFEDVSSEVSTLHKRKGRQSNWNPQHLLILQAQFASSLFQTSEGKYLLSDLGPQERMQISKFTGLSMTTISHWLANVKYQLRKTGGTKFLKNMDKGHPIFYCSDCASQFRTPSTYISHLESHLGFQMKDMTRLSVDQQSKVEQEISRVSSAQRSPETIAAEEDTDSKFKCKLCCRTFVSKHAVKLHLSKTHSKSPEHHSQFVTDVDEE"}, "B2": {"name": "myc-tagged human TSHZ2 (protein, UniProt Q9NRE2 1-1034)", "chain": "B1 chain"}},
  "key": {"[1]": {"molecular_target": "T1, myc-tagged human TSHZ2 harboring a mutated CtBP-interaction motif (764-PIALT) (human) (UniProt Q9NRE2)", "T1 sequence": "B1 chain with D766A", "test": "co-IP; HEK293T cells transiently transfected with two tagged expression vectors; immunoprecipitation by the tags, as previously reported (ref. 30)"}, "[2]": {"molecular_target": "T2, myc-tagged human TSHZ2 (human) (UniProt Q9NRE2)", "T2 sequence": "B1 chain", "test": "co-IP; HEK293T cells transiently transfected with two tagged expression vectors; immunoprecipitation by the tags, as previously reported (ref. 30)"}, "[3]": {"molecular_target": "T3, myc-tagged human TSHZ3 (human) (UniProt Q63HK5)", "T3 sequence": "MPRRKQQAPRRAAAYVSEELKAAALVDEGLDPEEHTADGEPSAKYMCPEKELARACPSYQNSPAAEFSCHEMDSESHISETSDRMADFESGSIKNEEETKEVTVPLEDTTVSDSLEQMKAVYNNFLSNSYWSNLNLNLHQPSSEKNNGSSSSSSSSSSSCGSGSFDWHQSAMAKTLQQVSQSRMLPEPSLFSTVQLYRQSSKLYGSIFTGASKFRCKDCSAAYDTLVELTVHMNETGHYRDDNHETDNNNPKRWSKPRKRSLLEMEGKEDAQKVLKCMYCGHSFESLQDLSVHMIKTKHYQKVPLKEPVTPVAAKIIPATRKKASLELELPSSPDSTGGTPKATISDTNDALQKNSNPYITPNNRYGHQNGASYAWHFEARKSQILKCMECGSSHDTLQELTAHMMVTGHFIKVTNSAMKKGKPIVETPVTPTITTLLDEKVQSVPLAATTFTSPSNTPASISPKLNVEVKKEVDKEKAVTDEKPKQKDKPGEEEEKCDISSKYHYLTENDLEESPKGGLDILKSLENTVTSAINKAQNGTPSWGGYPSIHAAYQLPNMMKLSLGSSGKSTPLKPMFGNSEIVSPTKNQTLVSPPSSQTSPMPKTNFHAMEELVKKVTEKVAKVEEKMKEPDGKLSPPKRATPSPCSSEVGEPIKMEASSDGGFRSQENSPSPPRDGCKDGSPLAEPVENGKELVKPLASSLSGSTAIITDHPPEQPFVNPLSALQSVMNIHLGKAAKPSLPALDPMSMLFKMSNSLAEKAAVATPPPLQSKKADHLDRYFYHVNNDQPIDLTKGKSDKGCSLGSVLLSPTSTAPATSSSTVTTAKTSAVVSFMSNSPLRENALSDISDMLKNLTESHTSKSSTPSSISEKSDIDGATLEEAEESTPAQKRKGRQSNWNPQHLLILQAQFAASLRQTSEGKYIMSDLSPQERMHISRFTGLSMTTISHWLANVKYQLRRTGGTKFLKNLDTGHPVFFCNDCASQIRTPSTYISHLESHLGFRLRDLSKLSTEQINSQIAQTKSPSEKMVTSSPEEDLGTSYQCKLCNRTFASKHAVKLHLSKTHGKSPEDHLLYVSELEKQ", "test": "co-IP; HEK293T cells transiently transfected with two tagged expression vectors; immunoprecipitation by the tags, as previously reported (ref. 30)"}, "[4]": {"molecular_target": "T4, myc-tagged human TSHZ1 (human) (UniProt Q6ZSZ6)", "T4 sequence": "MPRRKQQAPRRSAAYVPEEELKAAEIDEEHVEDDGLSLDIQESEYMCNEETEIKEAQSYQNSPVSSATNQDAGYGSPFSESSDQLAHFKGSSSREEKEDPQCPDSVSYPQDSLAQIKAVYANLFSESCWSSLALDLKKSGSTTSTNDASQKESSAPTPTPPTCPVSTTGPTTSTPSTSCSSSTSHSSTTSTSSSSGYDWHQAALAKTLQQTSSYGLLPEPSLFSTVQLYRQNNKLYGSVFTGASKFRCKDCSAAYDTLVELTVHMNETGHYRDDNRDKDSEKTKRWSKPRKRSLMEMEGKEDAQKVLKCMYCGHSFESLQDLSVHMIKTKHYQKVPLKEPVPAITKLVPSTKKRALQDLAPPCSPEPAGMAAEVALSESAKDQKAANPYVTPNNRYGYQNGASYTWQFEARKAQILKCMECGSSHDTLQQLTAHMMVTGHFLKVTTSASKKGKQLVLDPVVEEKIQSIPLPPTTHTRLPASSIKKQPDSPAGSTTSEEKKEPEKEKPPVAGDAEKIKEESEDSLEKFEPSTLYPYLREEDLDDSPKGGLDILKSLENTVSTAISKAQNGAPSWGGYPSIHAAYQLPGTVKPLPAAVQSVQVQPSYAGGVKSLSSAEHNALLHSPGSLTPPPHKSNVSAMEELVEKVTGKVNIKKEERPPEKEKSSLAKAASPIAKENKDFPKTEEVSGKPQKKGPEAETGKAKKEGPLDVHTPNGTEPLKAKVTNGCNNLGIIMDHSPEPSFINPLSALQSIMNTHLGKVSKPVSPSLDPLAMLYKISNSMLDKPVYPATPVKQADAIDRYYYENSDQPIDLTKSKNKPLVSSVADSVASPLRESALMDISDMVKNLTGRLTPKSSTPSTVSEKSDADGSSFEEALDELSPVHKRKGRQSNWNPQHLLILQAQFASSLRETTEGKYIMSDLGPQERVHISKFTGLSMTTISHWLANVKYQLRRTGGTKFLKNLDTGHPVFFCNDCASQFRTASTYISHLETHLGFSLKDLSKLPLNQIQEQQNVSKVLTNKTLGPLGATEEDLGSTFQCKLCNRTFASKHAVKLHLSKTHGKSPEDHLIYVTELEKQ", "test": "co-IP; HEK293T cells transiently transfected with two tagged expression vectors; immunoprecipitation by the tags, as previously reported (ref. 30)"}, "[5]": {"molecular_target": "endogenous CtBP2 (human (endogenous in human mammary tissue)) (UniProt P56545)", "test": "proximity ligation; in situ PLA (Duolink kit) on 2 μm sections of formalin-fixed, paraffin-embedded human mammary glands; endogenous proteins"}, "[6]": {"molecular_target": "FLAG-EGFP-tagged human GLI2 (human) (UniProt P10070)", "test": "co-IP; HEK293T cells transiently transfected with two tagged expression vectors; immunoprecipitation by the tags, as previously reported (ref. 30)"}, "[7]": {"molecular_target": "FLAG-EGFP-tagged human GLI1 (human) (UniProt P08151)", "test": "co-IP; HEK293T cells transiently transfected with two tagged expression vectors; immunoprecipitation by the tags, as previously reported (ref. 30)"}},
  "note": "Changes are numbered by the printed parent chain. Results are given in words; binding and its absence hold for the method and conditions named. In cells and extracts the contact can be indirect. Some entries that bind do so weakly or less than the wild type. For some assays here: Where a sequence is shown, tags or fusion partners need not be part of it.",
  "data": [
    {"molecule": "FLAG-tagged human CtBP2 (from UniProt P56545 1-445)", "values": [
      {"measurement": "binding", "setting": "[1]", "value": "no binding"},
      {"measurement": "binding", "setting": "[2]", "value": "binds"}
    ]},
    {"molecule": "HA-tagged human GLI2 (from UniProt P10070 1-1586)", "values": [
      {"measurement": "binding", "setting": "[3]", "value": "no binding"},
      {"measurement": "binding", "setting": "[4]", "value": "no binding"},
      {"measurement": "binding", "setting": "[2]", "value": "binds"}
    ]},
    {"molecule": "HA-tagged human GLI1 (from UniProt P08151 1-1106)", "values": [
      {"measurement": "binding", "setting": "[3]", "value": "no binding"},
      {"measurement": "binding", "setting": "[4]", "value": "no binding"},
      {"measurement": "binding", "setting": "[2]", "value": "binds"}
    ]},
    {"molecule": "B1", "values": [
      {"measurement": "binding", "setting": "[5]", "value": "binds"}
    ]},
    {"molecule": "B2", "values": [
      {"measurement": "binding", "setting": "[6]", "value": "binds"},
      {"measurement": "binding", "setting": "[7]", "value": "binds"}
    ]}
  ]
}
